# Measurements reported in the supplement of paper PMC3334620.
# Over roughly 33,000 sequences, “E-score (-0.5 to 0.5)” has its median near -0.04; the highest 2% begin near 0.36. This is one part of the list.
# Molecular target: T1, Hmlalpha2 (UniProt P0CY09)
# T1 sequence: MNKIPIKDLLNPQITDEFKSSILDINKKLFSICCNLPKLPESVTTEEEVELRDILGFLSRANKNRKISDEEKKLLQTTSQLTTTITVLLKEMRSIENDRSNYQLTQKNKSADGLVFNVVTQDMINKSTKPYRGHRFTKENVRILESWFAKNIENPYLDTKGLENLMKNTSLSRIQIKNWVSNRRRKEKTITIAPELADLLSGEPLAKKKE
# Assay: PBM E-score (8-mer binding enrichment) (E-score (-0.5 to 0.5)); higher = stronger / more preferred TF binding; most listed sequences are background and not binding sites
# Conditions: protein concentration: 200 nM; construct: GST-full length
# Procedure, shortened: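 Yeast transcription factors carrying a GST tag, as full-length proteins or DNA-binding domains, were produced by PURExpress in vitro transcription/translation. About 100-200 nM protein was applied to universal all-10-mer Agilent arrays, double-stranded by primer extension on fresh or once-stripped slides. Bound protein was detected with fluorescent anti-GST, and scans were normalised with masliner. The Universal PBM Analysis Suite gave each ungapped eight-base word, pooled with its reverse complement, an E-score, a modified Wilcoxon-Mann-Whitney statistic.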
row,Sequence,PBM E-score
1,CCCTGGTC,-0.299
2,ACCAAAGG,-0.219
3,CGTTTTAA,0.26
4,AGAGTAAG,0.195
5,CCGTGCAA,0.119
6,GGATGACC,-0.218
7,AACACTAT,0.231
8,AGTGTCAC,-0.112
9,CTGCTGAA,-0.0106
10,AGGGGTCG,-0.156
11,CTGTCGTC,-0.0495
12,GACCAGCC,-0.265
13,AGCAGCAC,-0.0514
14,TACAACTA,0.182
15,ATGAAACA,0.17
16,ACGTGACA,0.239
17,ACTACTCT,-0.0533
18,GACCGAGC,-0.135
19,ACTGGACA,-0.0919
20,GTCCGTCA,-0.0862
21,AGCGTCTA,-0.0915
22,ACACCGAA,0.058
23,AGAAACCT,-0.132
24,CAGCGTTC,-0.0056
25,GCATGGAA,0.0408

row,Sequence,PBM E-score
1,AATGTATA,0.315
2,GCTTTATA,-0.105
3,GACCGACA,-0.139
4,GCAATAAC,0.0236
5,ATAGTATA,0.0551
6,AATCGTAC,0.102
7,AATAGGAC,0.0121
8,AAAATGGA,0.163
9,CTTCAAAA,0.0667
10,CAGTCAGC,-0.113
11,CATGTACG,0.372
12,GAATCGAA,0.117
13,ACTCAATA,0.211
14,GAGGACGA,-0.108
15,ACACCTCG,-0.0181
16,ATTGCACG,0.255
17,CTCCCTGC,-0.278
18,CTCAGTTA,0.042
19,CCGGTAGC,-0.23
20,AATTAGTA,0.205
21,AGTCTCTA,-0.111
22,CGAAGAAC,0.196
23,CGGTCGAG,-0.201
24,GTGCGAGA,-0.0911
25,CTCTCTCC,-0.24

row,Sequence,PBM E-score
1,TGATGAAA,0.0453
2,GCAGGAAA,-0.0984
3,CTCATTAA,0.106
4,TCATTGGA,0.0975
5,CCCTATGA,-0.278
6,CCATTGCG,-0.262
7,ATAAGCAA,0.112
8,TGAGTACA,0.249
9,AAGGCACT,-0.203
10,TGAGACAA,-0.221
11,CCTTGAAA,-0.176
12,GAACCATA,-0.109
13,ATGCGGTG,-0.25
14,TAGATTCA,0.0528
15,CCCGGACA,-0.0938
16,TAACGTAA,0.331
17,CTTATGTA,0.409
18,ATCCAGCC,-0.167
19,ACACGCGA,0.378
20,CGGACAGA,-0.0354
21,CAACTAGC,0.0853
22,GTGCGTCA,-0.0806
23,CTTTTAAC,0.222
24,GGTACGCA,0.111
25,GTGCCGTA,0.0149

row,Sequence,PBM E-score
1,ACGCCTAG,-0.128
2,CGGGTCAC,-0.196
3,AAACGGTT,-0.0207
4,CGTATCAG,-0.105
5,AGAATCGA,-0.0964
6,CCGAACTA,-0.0215
7,CACGAGAC,-0.0265
8,ATTCAGAG,-0.0465
9,GTCGGTCA,-0.174
10,CCCGTTCG,-0.0811
11,ACCTCCAT,-0.192
12,AGACTGAA,0.0304
13,AACTTGGT,0.0922
14,AAAGTCCG,-0.118
15,AAAGAGTT,-0.102
16,GTTAGAAA,0.0789
17,AAACAACC,0.168
18,GTGAGAAA,-0.0612
19,CCGCCAAC,-0.263
20,CCACGGGG,-0.278
21,AGAGAGGA,-0.223
22,CTTAAGCA,-0.0819
23,ATTTCTGC,0.0344
24,GCCGTACA,0.0778
25,CCCGCATA,0.0385

row,Sequence,PBM E-score
1,ACTCGTGG,-0.0958
2,CTCTCAGA,-0.256
3,CAGATAAC,0.0509
4,AGCCAATG,-0.0511
5,ACCGTTAG,-0.0782
6,CCTATTAA,-0.0431
7,AATATGAC,0.0994
8,ACCGGTAA,-0.00891
9,GTGTCGTA,0.277
10,GAGGAGGA,-0.227
11,CCCTGCCG,-0.364
12,AATTATTG,0.0733
13,AATTCCCA,0.124
14,GTTAGAGA,-0.0671
15,AAACTAGA,0.0433
16,CTCTACTC,-0.104
17,AGAACTTA,0.149
18,ACCTAGGG,-0.16
19,CTTTCGAA,-0.197
20,ATAGGTAC,0.0401
21,AGACCATG,-0.0012
22,AGTCATAG,-0.323
23,GATGGCTA,-0.127
24,TGAACACA,0.347
25,TAAGAGAA,0.155

row,Sequence,PBM E-score
1,ATAATACA,0.38
2,CGAACAAC,0.202
3,CGTCAGCC,0.0153
4,GATGAACC,-0.0126
5,GATGGGCC,-0.28
6,ATAGTCCG,0.00442
7,AACTGGGG,-0.291
8,CAGCCAAG,-0.125
9,ATGTAACG,0.362
10,AAAGACAC,0.231
11,ATACTACC,-0.0181
12,AACTTCAC,0.121
13,CCCTTTCG,-0.011
14,AGTTCTAG,-0.249
15,AGGCTAGC,-0.209
16,AAAGTCAC,0.0449
17,CCACATAG,-0.105
18,TCACTACA,0.275
19,CCCCCTAA,-0.263
20,GAGTTCAC,0.104
21,AAAAAGCA,0.0395
22,TACCAATA,-0.172
23,AAAGGATG,0.0139
24,ACCGTGCT,-0.0693
25,GGACCGCC,-0.235

row,Sequence,PBM E-score
1,CTCCTGAC,-0.208
2,TCGGATCA,0.0619
3,CGCTCGAC,-0.206
4,AGTATTGG,-0.114
5,CAGGTATG,0.0854
6,CTTAGCGC,0.00158
7,CAGTAAGG,-0.0753
8,AAACGAAT,-0.00184
9,AGAACGAC,-0.0288
10,AGCGTCTG,-0.139
11,ACCCTTAG,-0.182
12,ATCGTTCC,-0.186
13,TATTCAGA,0.0759
14,AAACGTAA,0.263
15,ATATCACA,0.0488
16,CAAGGGAC,-0.162
17,CACGGGTA,0.195
18,AGATGGTA,-0.083
19,CTGCTAAA,0.0291
20,AGTTACAT,0.328
21,GCGGGACA,-0.186
22,CGTGGCGC,-0.0659
